# PubChem BioAssay AID686978 (National Center for Advancing Translational Sciences (NCATS), 2013)
# Screen size: about 420,000 compounds; about 64,000 (15%) were called active. The shares of active, inactive and inconclusive entries below differ from those in the screen. The call rests on the fitted dose curve; in most records, active means well fitted inhibition curve with a large enough effect; inconclusive means small, poorly fitted or top-dose-only effect; inactive means flat fitted curve, though single readings scatter. Potencies of inconclusive entries are left out as doubtful fits.
# Assay: qHTS for Inhibitors of human tyrosyl-DNA phosphodiesterase 1 (TDP1): qHTS in cells in absence of CPT; further: nearly all actives have a fitted effect of over 55% in size
# Settings: DT40 Tdp1-/- hTDP1 cells, no CPT, ATP luminescence, 48 h; activity change, negative = growth inhibition: at 46.2 µM (top of the series) unless noted
# Procedure, shortened: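 Cells were dispensed at 400 per well, compounds added by pin tool, plates incubated ≥48 hr at 37 °C, then CellTiter-Glo added for 30 min at room temperature before luminescence reading. Line: DT40 Tdp1-/- complemented with hTDP1; camptothecin omitted.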
# On the % scale 0 is the no-effect control and ±100 the full control effect; potency means the concentration at half of the fitted maximal effect; tags describe the fitted curve by direction and shape.
SMILES,Potency,"activity change, negative = growth inhibition"
Cc1ccccc1-n1nc(CO)c(C(=O)NCCc2ccccc2)n1,"inconclusive [inhibitor, single point]",–
CC(=O)c1c(OC(=O)c2ccco2)c2ccccc2n1C,"inconclusive [inhibitor, single point]",–
CCCOc1ccc(N2C(=O)CC(N3CCN(c4ccc([N+](=O)[O-])cc4)CC3)C2=O)cc1 (stereo not given),inactive,–
COc1ccc2c(c1OC)C(=O)N1N=C(c3ccc(-c4ccccc4)cc3)CC21 (stereo not given),–,inconclusive: -12.4% [inhibitor]
O=C(N/N=C/c1c(O)n(-c2ccc(Cl)cn2)c(=O)c2ccccc12)C1CC1,"inconclusive [inhibitor, single point]",–
O=[N+]([O-])c1ccc(Sc2nnnn2-c2ccccc2)c(Cl)c1,active: 20.6 µM,–
O=C(CC12CC3CC(CC(C3)C1)C2)Nc1c(F)cccc1F,"inconclusive [inhibitor, partial curve]",–
O=C(NCC1CCCO1)C(=O)N/N=C/c1cc(Cl)ccc1O (stereo not given),"inconclusive [inhibitor, single point]",–
Cc1cccc(C)c1NC(=O)CSc1nc(COc2ccccc2)nc2ccccc12,"inconclusive [inhibitor, single point]",–
CC1CCc2c(sc(NC(=O)c3ccccc3)c2C(=O)Nc2ccccc2)C1 (stereo not given),active: 20.6 µM,–
O=C(NC1CCCC1)C(c1ccccc1F)N(C(=O)c1ccco1)C1CCCC1 (stereo not given),"inconclusive [inhibitor, single point]",–
C/C(=N\Nc1nc2ccccc2s1)c1ccc(Br)s1,"inconclusive [inhibitor, single point]",–
CSc1ccc(CN2CCC(C(=O)NCc3ccc(C)cc3)CC2)cc1,inactive,–
CNS(=O)(=O)c1cccc(C(=O)NCC(c2cccs2)N(C)C)c1 (stereo not given),inactive,–
CN(C)CCCN(C(=O)c1ccco1)c1nc(-c2ccc(Cl)cc2)cs1,"inconclusive [inhibitor, single point]",–
CN(C)c1ccc(P(=O)(OCc2ccccc2)C(O)c2ccc(Br)cc2)cc1 (stereo not given),"inconclusive [inhibitor, single point]",–
Fc1ccc(-c2cnn3c(-c4ccncc4)ccnc23)cc1,"inconclusive [inhibitor, single point]",–
COC(=O)c1sc(S(=O)(=O)Oc2ccccc2NC(C)=O)c(C(=O)OC)c1C,"inconclusive [inhibitor, single point]",–
CCCCn1c(N)c(N(Cc2ccccc2OC)C(=O)c2ccc(N3CCCC3=O)cc2)c(=O)[nH]c1=O,inactive,–
Cn1c(=O)c2sccc2n(Cc2ccccc2)c1=O,inactive,–
O=C(O)c1ccc(/C=N/Nc2ccc(F)cc2F)cc1,inactive,–
Cc1cccc(CSc2cn(CC(=O)N3CCCCCC3)c3ccccc23)c1,"inconclusive [inhibitor, single point]",–
Cc1[nH]c2ccc(F)cc2c1CCN(Cc1cccnc1)C(=S)Nc1ccccc1,"inconclusive [inhibitor, partial curve, poor fit]",–
COc1cc(/C=N/Nc2ncc(C(F)(F)F)cc2Cl)cc(OC)c1O,"inconclusive [inhibitor, partial curve, poor fit]",–

SMILES,Potency,"activity change, negative = growth inhibition"
Clc1ccc(-c2[nH]ncc2N=Nc2ccccc2)cc1,"inconclusive [inhibitor, single point]",–
COc1ccc(Br)cc1C(=O)Nc1ccc(C(=O)NCC(C)C)cc1,"inconclusive [inhibitor, partial curve]",–
CC(=O)N1CCN(c2ccc(NC(=O)c3ccc([N+](=O)[O-])o3)cc2Cl)CC1,active: 0.92 µM,–
COc1ccc(N2CCN(C(=O)c3cccc(Cn4cc(Cl)cn4)c3)CC2)cc1,active: 23.1 µM,–
Cc1cc(C(=O)COC(=O)Cc2n[nH]c(=O)c3ccccc23)c(C)n1-c1cccc(C(F)(F)F)c1,active: 16.4 µM,–
CC(NCC(O)COc1ccc(Br)cc1)c1ccccc1 (stereo not given),"inconclusive [inhibitor, partial curve]",–
C/C(=N\Nc1cc(N2CCOCC2)ncn1)c1ccccc1,"inconclusive [inhibitor, single point]",–
O=C(Nc1ccc2c(c1)OCCO2)c1cnc2n(c1=O)CCS2,"inconclusive [inhibitor, partial curve]",–
CCCCN(C)CCNC(=O)C1CCN(c2nc3ccc(CC)cc3s2)CC1,active: 23.1 µM,–
O=S1(=O)[C@H]2C[C@@H]3C=C[C@]2(CN1Cc1ccc(C(F)(F)F)cc1)O3,inactive,–
Cc1ccc([C@@H]2CC=C(C(=O)O)[C@H](c3cccc(Cl)c3)N2S(=O)(=O)c2ccc(C)cc2)cc1,"inconclusive [inhibitor, partial curve]",–
CCOC(=O)C1CCCN(C(=O)c2ccc(-c3ccccc3)cc2)CC1 (stereo not given),"inconclusive [inhibitor, single point]",–
Cc1nnc(NCc2ccncc2)c2ccccc12,–,inconclusive: -39.8% [inhibitor]
CCN(CC)c1cccc(OCC(=O)N(C)CCC#N)c1,"inconclusive [inhibitor, single point]",–
COc1ccc(OCC(=O)NNC(=S)NC(=O)c2ccc([N+](=O)[O-])cc2)cc1,"inconclusive [inhibitor, single point]",–
CCCCc1nnc(NC(=O)CSc2nc(N)cc(=O)[nH]2)s1,inactive,–
COc1ccc(C2=NN(C(=O)COC(=O)c3ccc(NC(=O)CC#N)cc3)C(c3ccco3)C2)cc1 (stereo not given),"inconclusive [inhibitor, single point]",–
O=C1S/C(=C\c2ccc(O)c([N+](=O)[O-])c2)C(=O)N1Cc1cccc([N+](=O)[O-])c1,inactive,–
CC(C)(C)C1CCC(=NNC(=O)c2cc(-c3ccccc3)n[nH]2)CC1 (stereo not given),"inconclusive [inhibitor, single point]",–
CCN(CC)c1ccc(SS(=O)(=O)O)cc1,inactive,–
CC1(C(=O)NS(=O)(=O)c2ccc3ccccc3c2)CCN1C(=O)C1(c2ccc(Cl)cc2)CCC1 (stereo not given),inactive,–
COc1cccc(C(=O)NN2c3ccccc3CCc3ccccc32)c1,active: 10.3 µM,–
Cc1ccc(C)n1-n1c(C)nc2sc3c(c2c1=O)CCCCC3,"inconclusive [inhibitor, single point]",–
COc1ccc(NS(=O)(=O)c2ccc(Br)cc2)cn1,"inconclusive [inhibitor, single point]",–

SMILES,Potency,"activity change, negative = growth inhibition"
Cc1cccc(NC(=O)c2ccc3[nH]c(=O)c(=O)[nH]c3c2)n1,"inconclusive [inhibitor, partial curve]",–
COc1ccc(/C(O)=C2/C(=O)C(=O)N(CC3CCCO3)C2c2cccc(O)c2)cc1 (stereo not given),inactive,–
COc1ccc(CNc2ccnc(-c3ccc(N(C)C)cc3)n2)c(OC)c1,"inconclusive [inhibitor, single point]",–
O=C(CCC(=O)N1Cc2ccccc2Oc2ncccc21)NCc1ccccc1Cl,"inconclusive [inhibitor, single point]",–
CCCCOCP(=O)(CCCC)COCCCC,"inconclusive [inhibitor, full curve, poor fit]",–
CCN1C(=O)[C@@H]2[C@@H](c3ccc(-c4ccc5c(c4)OCO5)c(OC)c3)N3CCCC[C@@]3(C(=O)OC)[C@@H]2C1=O,"inconclusive [inhibitor, single point]",–
CCN1CCN(S(=O)(=O)c2ccc(Cl)c(C(=O)NC3CCC(C)CC3)c2)CC1 (stereo not given),"inconclusive [inhibitor, single point]",–
CCOC(=O)c1ccc(Nc2cc(C)nc(N3CCOCC3)n2)cc1,"inconclusive [inhibitor, single point]",–
CCN(CC)c1ccc(NC(=O)c2cnn3c(C(F)F)cc(-c4ccccc4)nc23)cc1,active: 13 µM,–
COc1ccc(Cl)cc1NC(=O)C1CCN(c2ncnc3c2nc2n3CCCCC2)CC1,active: 9.2 µM,–
CCOC(=O)c1c(NC(=O)CN2CCCCC2)sc(CN(C)C)c1-c1ccccc1,"inconclusive [inhibitor, partial curve]",–
Cc1ccccc1-c1cnc(C(O)c2ccc(-c3ccccc3)cc2)[nH]1 (stereo not given),"inconclusive [inhibitor, single point]",–
CC(C)=NOCC(=O)Nn1c(COc2c(C)cccc2C)nc2ccccc2c1=O,inactive,–
CC(C)C[C@H]1CN([C@@H](Cc2ccccc2)CN2CCC[C@@H]2CN2C(=O)C(=O)NC[C@@H]2Cc2ccc(O)cc2)C(=O)C(=O)N1CC1CCCCC1,"inconclusive [inhibitor, single point]",–
CS(=O)(=O)N1CCCCC1c1cc(C(=O)Nc2ccccc2)no1 (stereo not given),inactive,–
CC(C)(C)c1ccc(OCCC(=O)Nc2cccc(S(=O)(=O)N3CCCCC3)c2)cc1,"inconclusive [inhibitor, single point]",–
CCOc1ccccc1C(=O)OCC(=O)Nc1nnc(-c2ccccc2)o1,active: 16.4 µM,–
Cc1cccc(C)c1Cn1c(C)c(C(=O)NCc2ccc([N+](=O)[O-])cc2)sc1=O,active: 23.1 µM,–
CN1N=C(C(=O)N2CCCC(Nc3ccc(F)c(F)c3)C2)CCC1=O (stereo not given),inactive,–
Cn1c(-c2ccccc2[N+](=O)[O-])[n+](C)c2ccccc21,active: 5.8 µM,–
Cn1c(=O)cc(NCCc2ccccc2)[nH]c1=O,active: 10.3 µM,–
COc1ccc(C(c2c(O)cc(C)n(Cc3ccco3)c2=O)N2CCN(c3ccccc3)CC2)cc1 (stereo not given),inactive,–
